Test results taken from the supplement of paper PMC12217912.
Some of the results follow. The full chains were built here from the parent and the listed change. Values near 0.05 are background.

B1: TEV protease; numbered along this chain (parent)
chain: MGESLFKGPRDYNPISSSICHLTNESDGHTTSLYGIGFGPFIITNKHLFRRNNGTLVVQSLHGVFKVKDTTTLQQHLVDGRDMIIIRMPKDFPPFPQKLKFREPQREERICLVTTNFQTKSMSSMVSDTSCTFPSGDGIFWKHWIQTKDGQCGSPLVSTRDGFIVGIHSASNFTNTNNYFTSVPKNFMELLTNQEAQQWVSGWRLNADSVLWGGHKVFMVKPEEPFQPVKEATQL

Variants of: B1
Test: raw area under fraction-flipped curve 0-4 h after induction (AUC4h, not background-subtracted), DNA-recorder readout of cleavage of the substrate (dimensionless); higher = more cleavage of the substrate by the protease variant
Conditions: temperature: 34 °C; time window: 0-4 h after rhamnose induction
Method: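 In vivo DNA recorder in E. coli TOP10(DE3) ΔrhaA at 34 °C. Each TEVp single-site mutant (parent TEVp 0) is paired with a single-site variant of the 7-mer TEVs (canonical ENLYFQ|S). The substrate sits between flexible linkers in a Bxb1-sfGFP-TEVs-SsrA fusion, so cleavage stabilises Bxb1 and speeds flipping of a recombination array, read by NGS. The value is the raw area under the fraction-flipped curve over 0-4 h after rhamnose induction (AUC4h), with ≥20 reads per time point. It is not background-subtracted; inactive controls average about 0.047.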
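Also: Bxb1 expression induced with 0.2% (w/v) L-rhamnose at OD600 near 0.5, cultures sampled hourly, flipped fraction per protease–substrate barcode pair counted by paired-end Illumina sequencing.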

Row | Variant | area with substrate ENAYFQS | area with substrate ENCYFQS | area with substrate ENDYFQS | area with substrate ENFYFQS | area with substrate ENHYFQS | area with substrate ENMYFQS | area with substrate ENNYFQS | area with substrate ENRYFQS | area with substrate ENVYFQS | area with substrate ENEYFQS | area with substrate ENGYFQS | area with substrate ENIYFQS | area with substrate ENSYFQS | area with substrate ENPYFQS | area with substrate ENQYFQS | area with substrate ENWYFQS | area with substrate ENYYFQS | area with substrate ENTYFQS | area with substrate ENKYFQS
1 | E189W | 0.0608 | 0.0733 | 0.0708 | 0.0498 | 0.0694 | 0.0806 | 0.0505 | 0.0637 | 0.0721 | – | – | – | – | – | – | – | – | – | –
2 | E189P | 0.0359 | 0.0758 | – | – | 0.0438 | – | – | – | – | 0.0477 | 0.0561 | 0.108 | 0.0738 | – | – | – | – | – | –
3 | R204A | 0.0744 | 0.0326 | 0.0357 | 0.0681 | 0.0467 | 0.0851 | 0.0727 | 0.081 | 0.094 | 0.0671 | 0.0627 | – | 0.079 | 0.0757 | 0.0658 | 0.0611 | 0.0756 | – | –
4 | N178V | 0.0573 | – | 0.0785 | 0.0461 | 0.0575 | 0.0398 | 0.0557 | – | 0.0625 | 0.0646 | – | – | 0.0539 | 0.0865 | 0.0619 | – | – | 0.0716 | –
5 | K185W | 0.0516 | 0.0645 | 0.0683 | 0.0561 | 0.064 | 0.0372 | 0.0681 | 0.0564 | 0.0894 | 0.0703 | 0.0685 | 0.0963 | 0.0519 | 0.0478 | 0.0642 | 0.0363 | 0.062 | 0.064 | –
6 | K185Q | 0.0629 | 0.0648 | 0.0766 | – | 0.0761 | – | 0.0633 | 0.0667 | 0.0773 | 0.0551 | 0.0704 | 0.095 | 0.0589 | 0.06 | 0.0698 | – | – | 0.0651 | 0.0601
7 | W199I | 0.0622 | – | 0.0441 | 0.0789 | – | – | – | 0.0722 | – | – | – | 0.0437 | – | 0.0619 | – | – | – | 0.0562 | –
8 | W199V | 0.0541 | 0.0735 | – | – | – | – | 0.0693 | 0.0528 | 0.0501 | 0.0624 | 0.0665 | – | 0.062 | – | 0.0767 | 0.0489 | 0.0411 | – | –
9 | F173G | 0.0573 | – | 0.0641 | – | 0.0491 | – | – | – | 0.0568 | 0.0694 | – | – | – | 0.0594 | 0.0564 | 0.0582 | – | 0.0652 | –
10 | F173W | 0.0686 | 0.0625 | 0.0899 | 0.0604 | 0.052 | 0.0619 | 0.08 | 0.0586 | 0.0472 | 0.0674 | 0.0627 | – | 0.0463 | – | 0.0588 | 0.0791 | – | – | –
11 | S201V | 0.0563 | 0.0535 | – | – | – | 0.0971 | 0.0579 | 0.0528 | – | 0.0866 | 0.0647 | 0.0854 | – | – | 0.05 | – | 0.0808 | 0.0528 | 0.058
12 | F180R | 0.0456 | 0.051 | 0.0503 | 0.0556 | 0.0503 | – | – | – | – | 0.0656 | – | 0.0521 | 0.0612 | 0.0567 | 0.0403 | – | 0.0509 | 0.0498 | 0.0498
13 | F180D | 0.0989 | – | 0.0578 | – | – | – | 0.0389 | – | – | 0.0522 | – | 0.0674 | 0.0387 | 0.0328 | 0.0477 | – | 0.0617 | 0.0479 | –
14 | F180A | 0.0639 | – | 0.0575 | 0.0578 | – | – | – | – | – | – | 0.0626 | 0.0684 | 0.0656 | – | 0.0301 | – | – | 0.0842 | 0.0195
15 | M188D | 0.0493 | – | 0.0524 | 0.0431 | – | – | – | 0.0622 | – | 0.0759 | – | – | – | 0.0567 | 0.0647 | 0.0288 | – | 0.0561 | 0.0611
16 | N193W | 0.0423 | – | 0.0711 | – | 0.0754 | – | 0.1 | – | – | 0.0677 | 0.0585 | 0.0714 | 0.0816 | – | 0.0587 | – | 0.0598 | 0.0568 | –

Row | Variant | area with substrate ENAYFQS | area with substrate ENCYFQS | area with substrate ENDYFQS | area with substrate ENFYFQS | area with substrate ENHYFQS | area with substrate ENMYFQS | area with substrate ENNYFQS | area with substrate ENRYFQS | area with substrate ENVYFQS | area with substrate ENEYFQS | area with substrate ENGYFQS | area with substrate ENIYFQS | area with substrate ENSYFQS | area with substrate ENPYFQS | area with substrate ENQYFQS | area with substrate ENWYFQS | area with substrate ENYYFQS | area with substrate ENTYFQS | area with substrate ENKYFQS
17 | N193E | 0.0646 | 0.0669 | – | – | 0.0785 | – | 0.0665 | 0.051 | – | 0.0664 | – | – | 0.0821 | 0.0509 | 0.0972 | 0.0536 | – | 0.0584 | –
18 | A196Y | 0.0793 | – | – | – | 0.0642 | – | 0.0843 | – | 0.086 | 0.0727 | – | – | 0.0542 | – | 0.0638 | 0.0389 | – | 0.074 | 0.0573
19 | A196T | 0.0626 | 0.0642 | 0.0642 | 0.0565 | – | 0.0823 | 0.0687 | 0.0624 | 0.108 | – | – | – | 0.0887 | 0.0628 | 0.0516 | 0.0522 | – | 0.0672 | 0.0634
20 | A196R | 0.0624 | – | – | 0.0563 | – | – | – | – | – | 0.0728 | – | – | – | – | – | – | – | – | –
21 | N177K | 0.0734 | 0.062 | – | – | 0.0792 | – | – | – | – | 0.0664 | 0.0674 | 0.0405 | – | – | – | 0.0602 | – | – | –
22 | Q197S | 0.0907 | – | 0.0531 | 0.0621 | – | 0.0722 | 0.0753 | – | – | 0.0607 | – | – | 0.0695 | 0.0659 | – | – | 0.0597 | – | –
23 | Q197N | 0.0679 | – | 0.0726 | 0.0701 | – | – | – | – | 0.0717 | 0.0627 | 0.0677 | – | – | 0.0588 | – | – | – | – | –
24 | Q197P | 0.0603 | – | 0.0654 | 0.0462 | – | – | 0.0614 | – | – | – | – | – | 0.0369 | 0.0538 | 0.0683 | 0.0512 | – | – | –
25 | L205R | 0.0622 | 0.0639 | 0.0588 | – | 0.0588 | – | 0.0664 | – | 0.0625 | 0.0581 | 0.0876 | 0.0645 | 0.0585 | – | 0.0608 | 0.0713 | – | 0.0636 | 0.0676
26 | S171D | 0.0524 | 0.0649 | 0.0635 | 0.075 | 0.0575 | 0.0632 | 0.0665 | 0.0532 | 0.0628 | 0.0609 | 0.0595 | – | 0.0536 | 0.0565 | 0.0687 | – | 0.0618 | 0.0433 | 0.0628
27 | S171T | 0.0411 | – | – | 0.0614 | – | – | – | 0.0653 | 0.0733 | 0.0477 | 0.055 | – | – | – | – | – | – | – | 0.0729
28 | S171P | 0.0654 | 0.0552 | 0.0453 | 0.0869 | – | – | 0.066 | 0.069 | 0.0525 | 0.0559 | 0.0587 | 0.0765 | 0.0472 | 0.0528 | 0.0647 | 0.0429 | – | 0.0538 | 0.0523
29 | T181S | 0.0596 | 0.062 | – | – | 0.0615 | 0.0661 | – | – | – | 0.0613 | – | – | – | – | 0.0653 | – | – | – | –
30 | T181R | 0.0517 | 0.0482 | – | 0.0447 | – | 0.0545 | 0.0534 | 0.0432 | 0.0429 | 0.0494 | 0.0597 | 0.0617 | 0.0538 | 0.0495 | 0.0478 | 0.0447 | – | 0.0544 | –
31 | L191V | 0.0544 | 0.0698 | 0.0614 | 0.072 | 0.052 | 0.0643 | 0.0531 | 0.0569 | 0.046 | – | 0.0695 | 0.115 | 0.067 | 0.0681 | 0.0641 | – | 0.0543 | 0.0588 | 0.068
